Experimental data from the supplement of paper PMC4723716.
± gives the uncertainty stated by the source. The full ranking holds about 9,900 compounds; the median of “viability index relative to DMSO control” is about 1, and the lowest 2% start at about 0.85. This is one part of the list.

Test system: Plasmodium falciparum NF54 stage V gametocytes
Test: viability index relative to DMSO control (fraction); higher = less gametocyte killing
Conditions: 2.5 µM, library set: Broad Institute DOS, incubation time: 72 h
Outline: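 Compound at 2.5 µM was incubated for 72 hr at 37°C under low oxygen with P. falciparum NF54 stage V gametocytes (0.75% gametocytemia, 1.25% hematocrit, 10 µl, serum-free screening medium) in 1,536-well plates. Staining used 3 µl of 2.5 µM MitoTracker Red CMXRos plus 0.13% saponin for one to two hours, and red particles of 20–70 µm2 were counted in one imaged field per well. Each viability index is that count relative to the plate mean of solvent-only wells.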

SMILES	viability index
COc1ccccc1S(=O)(=O)N[C@@H]1C=C[C@H](CC(=O)N2CCOCC2)O[C@@H]1CO	1.11 ± 0.13
COc1cccc(NC(=O)N[C@H]2C=C[C@@H](CC(=O)NCc3ccncn3)O[C@@H]2CO)c1	1.09 ± 0.059
COCCNC(=O)C[C@@H]1CC[C@@H]2[C@H](COC[C@H](O)CN2Cc2ccc(Cl)c(Cl)c2)O1	1.03 ± 0.06
COC(=O)c1ccc(CN2CC(=O)N3[C@H](CO)[C@H](c4ccc(-c5cccnc5)cc4)[C@H]3C2)cc1	1.06 ± 0.036
C/C=C/c1ccc2n(c1=O)C[C@@H]1[C@@H](CO)[C@H](C(=O)NCCC)[C@H]2N1Cc1ccccc1OC.C/C=C\c1ccc2n(c1=O)C[C@@H]1[C@@H](CO)[C@H](C(=O)NCCC)[C@H]2N1Cc1ccccc1OC	1.04 ± 0.025
CO[C@@H]1CN(C)C(=O)c2ccc(NS(=O)(=O)CC(F)(F)F)cc2OC[C@@H](C)N(Cc2nccs2)C[C@@H]1C	1.12 ± 0.091
CC(=O)N1CC2(C1)[C@@H](c1ccccc1)[C@H](CO)N2C(=O)Cc1ccccc1	1.13 ± 0.043
C[C@H](NC(=O)C[C@@H]1CC[C@H]2[C@H](COc3ccc(NC(=O)C4CCOCC4)cc3C(=O)N2C)O1)c1ccccc1	1.18 ± 0.089
Cc1noc(C)c1S(=O)(=O)Nc1ccc2c(c1)C(=O)N([C@@H](C)CO)C[C@H](C)[C@@H](CN(C)C(=O)Nc1cccc3ccccc13)OCCCC[C@H](C)O2	0.984 ± 0.043
O=C(C[C@@H]1C=C[C@H](NC(=O)Cc2ccccn2)[C@H](CO)O1)NCCc1ccncc1	1.02 ± 0.09
O=C(NC[C@@H]1[C@@H](c2ccccc2)[C@H](CO)N1Cc1cccnc1)c1ccccn1	1.1 ± 0.067
CCS(=O)(=O)Nc1ccc2c(c1)C(=O)N(C)[C@H]1CC[C@H](CC(=O)NC3CCCCC3)O[C@@H]1CO2	0.999 ± 0.11
C[C@H](CO)N1C[C@H](C)[C@H](CN(C)CC2CCCCC2)OCCCC[C@H](C)Oc2ccc(NC(=O)Nc3ccc(C(F)(F)F)cc3)cc2C1=O	1.06 ± 0.063
CN(C[C@@H]1[C@H](c2ccccc2)[C@H](CO)N1Cc1ccccn1)S(C)(=O)=O	0.902 ± 0.069
CN1C(=O)c2cc(NC(=O)c3ccc(F)c(F)c3)ccc2OC[C@H]2O[C@H](CC(=O)N3CCCCC3)CC[C@H]21	1.04 ± 0.044
COc1ccc2c3c([C@@H](CO)N(Cc4ccc(Cl)cc4)C[C@]33CCN(CC4CC4)CC3)n(C)c2c1	0.909 ± 0.1
COCCNC(=O)C[C@@H]1CC[C@@H]2[C@@H](COc3ccc(NC(=O)Nc4cccc(F)c4)cc3C(=O)N2C)O1	1.17 ± 0.1
CO[C@H]1CN(C)C(=O)c2cc(NS(=O)(=O)CC(F)(F)F)ccc2OC[C@H](C)NC[C@H]1C	1.03 ± 0.038
COCCNC(=O)C[C@H]1CC[C@H]2[C@@H](COC[C@@H](O)CN2S(=O)(=O)c2ccccc2F)O1	1.08 ± 0.054
O=C(Cc1ccccn1)N[C@@H]1CC[C@H](CCNS(=O)(=O)c2cccc(F)c2)O[C@H]1CO	0.895 ± 0.17
CCS(=O)(=O)Nc1ccc2c(c1)C(=O)N(C)[C@@H]1CC[C@H](CC(=O)N[C@@H]3CCN(Cc4ccccc4)C3)O[C@H]1CO2	1.06 ± 0.07
CC(C)(C)[S@@](=O)N1Cc2cc(C(=O)NCCN3CCCC3)nc(-c3cccc(-c4ccc(C#N)cc4)c3)c2[C@H]1CCO	1.07 ± 0.074

SMILES	viability index
COCC(=O)N1C[C@H]2[C@@H](c3ccccc31)[C@@H](CO)N2Cc1cc(F)ccc1F	0.996 ± 0.051
CCC(=O)N1CC(=O)N2[C@@H](CO)[C@H](c3ccc(-c4ccc(C#N)cc4)cc3)[C@@H]2C1	0.939 ± 0.026
C[C@H](CO)N1C[C@H](C)[C@H](CN(C)C(=O)NC2CCCCC2)OCc2cn(nn2)CCCC1=O	0.9869 ± 0.0098
CCCN1C[C@@H](C)[C@@H](OC)CN(C)C(=O)c2ccc(NS(=O)(=O)c3cn(C)cn3)cc2OC[C@@H]1C	1.04 ± 0.11
COCC(=O)N1CC(=O)N2[C@H](CO)[C@@H](c3ccc(-c4ccncc4)cc3)[C@H]2C1	0.983 ± 0.1
CN1C(=O)c2cc(NC(=O)c3cnccn3)ccc2OC[C@@H]2O[C@@H](CC(=O)NCC3CCCCC3)CC[C@H]21	0.997 ± 0.055
C[C@@H]1CCCCO[C@@H](CN(C)Cc2ccncc2)[C@@H](C)CN([C@@H](C)CO)C(=O)c2cc(NC(=O)Cc3ccccc3)ccc2O1	1.07 ± 0.041
CN1c2ccc(Br)cc2[C@@H]2[C@@H](CCN2C(=O)Nc2cccc(F)c2)[C@H]1CO	0.974 ± 0.031
C[C@@H]1CN([C@H](C)CO)C(=O)c2cc(Br)cnc2O[C@H]1CN(C)C(=O)Nc1ccc2c(c1)OCO2	0.988 ± 0.075
O=C(CN1CCOCC1)N1CC2(C1)[C@H](c1ccccc1)[C@@H](CO)N2Cc1cccc(F)c1	1.056 ± 0.0046
COc1ccc(S(=O)(=O)Nc2ccc3c(c2)OC[C@H](C)NC[C@H](C)[C@H](OC)CN(C)C3=O)cc1	1.03 ± 0.055
CO[C@H]1CN(C)C(=O)c2ccc(NC(=O)C3CCC3)cc2OC[C@H](C)N(Cc2ccccn2)C[C@H]1C	1.09 ± 0.018
O=C(CN1CCOCC1)N1CC2(C1)[C@@H](c1ccccc1)[C@@H](CO)N2Cc1cccc(F)c1	1.08 ± 0.084
CS(=O)(=O)N1CC2(C1)[C@H](c1ccccc1)[C@@H](CO)N2Cc1ccccc1	1.08 ± 0.072
N#C[C@H]1[C@@H](c2ccccc2C2=CCCC2)[C@H](CO)N1C(=O)NC1CCCCC1	1.06 ± 0.032
CO[C@@H]1CN(C)C(=O)c2ccc(NC(=O)c3nc4ccccc4s3)cc2OC[C@H](C)N(Cc2cccnc2)C[C@H]1C	1.01 ± 0.021
Cc1cccc(S(=O)(=O)N2C[C@H]3[C@@H](c4ccccc42)[C@@H](CO)N3C(=O)c2ccccc2)c1	1.09 ± 0.033
CC(C)CC#Cc1ccc([C@@H]2[C@@H](CO)N3C(=O)CN(C(=O)c4cccc(F)c4)C[C@H]23)cc1	0.9935 ± 0.0079
C/C=C/c1ccccc1[C@@H]1[C@@H](C#N)N(C(=O)NC2CCCCC2)[C@H]1CO	1.07 ± 0.016
COc1ccc(S(=O)(=O)Nc2ccc3c(c2)CC(=O)N([C@@H](C)CO)C[C@H](C)[C@@H](CN(C)Cc2ccc(C(=O)Nc4ccccc4N)cc2)O3)cc1	0.872 ± 0.11
C[C@@H]1CN([C@@H](C)CO)C(=O)c2ccccc2-c2ccccc2CO[C@H]1CN(C)Cc1cccc(C(=O)O)c1	0.987 ± 0.016
C[C@H](CO)N1C[C@H](C)[C@H](CN(C)Cc2ccc3c(c2)OCO3)Oc2ncc(-c3cccc(C(F)(F)F)c3)cc2C1=O	0.976 ± 0.025
